Laboratory results reported in the RNAGym collection of RNA variant scans (doi:10.7554/elife.90254).
The source gives no read counts; variants with many changes may rest on few reads.

B1: LINE1-mini (parent)
chain: GGCAGAGCUCAACACAGCGUGGCAAAGUGGCUGUGGCUAGACUGCC

Variants of: B1
Experiment: self-cleavage, relative activity (ratio to wild type); higher = more cleavage; in vitro, sequencing; the parent is a self-cleaving ribozyme

Variant	self-cleavage
GGCAGAGCUAAACACAGCGCGGCAAAGUGGCUGUUGCUAGACUGCC [C10A U20C G35U]	0.02
GGCAGAGCUAAACACAGCGCGGCAAAGUGGCUGUGGCUAAACUACC [C10A U20C G40A G44A]	0.01
GGCAGAGCUAAACACAGCGCGGCAAAGGGGCUCUGGCUAGACUCCC [C10A U20C U28G G33C G44C]	0.01
GGCAGAGCUAAACACAGCGGGGCAAAGUGGCUGUGGCUGGACUUCC [C10A U20G A39G G44U]	0.03
GGCAGAGCUAAACACAGCGGGGCAAAGUGGAUGUGGCUUGACUGCC [C10A U20G C31A A39U]	0.03
GGCAGAGCUAAACACAGCGGGGCAAAGUGGCUGUGGCUAGACUGCU [C10A U20G C46U]	0.09
GGCAGAGCUAAACACAGCGUGGCAAAGACGCUUUGGCUAGACUGCC [C10A U28A G29C G33U]	0.02
GGCAGAGCUAAACACAGCGUGGCAAAGAGGCUGUGACUAGACUGCC [C10A U28A G36A]	0
GGCAGAGCUAAACACAGCGUGGCAAAGCUUAUGUGGCUAGAUUGCC [C10A U28C G29U G30U C31A C42U]	0.01
GGCAGAGCUAAACACAGCGUGGCAAAGCGCCUGUGGCUAGACUGCC [C10A U28C G30C]	0.53
GGCAGAGCUAAACACAGCGUGGCAAAGCGGCUUUCGCUACACUGCC [C10A U28C G33U G35C G40C]	0.01
GGCAGAGCUAAACACAGCGUGGCAAAGCGGCGGUUGCUAGACUGCC [C10A U28C U32G G35U]	0.02
GGCAGAGCUAAACACAGCGUGGCAAAGCGGCUGAGGCUAGACUGCC [C10A U28C U34A]	0.68
GGCAGAGCUAAACACAGCGUGGCAAAGGGGCUGUGGCUAGACUGAC [C10A U28G C45A]	0.01
GGCAGAGCUAAACACAGCGUGGCAAAGGGGCUGGGGCUAGACUGCC [C10A U28G U34G]	0.02
GGCAGAGCUAAACACAGCGUGGCAAAGUGGCAGUGGCUUGACUGCC [C10A U32A A39U]	0.02
GGCAGAGCUAAACACAGCGUGGCAAAGUGGCAGUGGCUAAACUGCC [C10A U32A G40A]	0.06
GGCAGAGCUAAACACAGCGUGGCAAAGUGGCCGUGGCUAGACUGGC [C10A U32C C45G]	0.03
GGCAGAGCUAAACACAGCGUGGCAAAGUGGCCGUGGCUAGACUGCA [C10A U32C C46A]	0.03

Variant	self-cleavage
GGCAGAGCUAAACACAGCGUGGCAAAGUGGCCGUGGCAAGACAGCC [C10A U32C U38A U43A]	0.02
GGCAGAGCUAAACACAGCGUGGCAAAGUGGCGGUGGUUCGACUGCC [C10A U32G C37U A39C]	0
GGCAGAGCUAAACACAGCGUGGCAAAGUGGCUGCGGCUGGACUGCC [C10A U34C A39G]	0.03
GGCAGAGCUAAACACAGCGUGGCAAAGUGGCUGGGGCUAGACUGUC [C10A U34G C45U]	0.04
GGCAGAGCUAAACACAGCGUGGCAAAGUGGCUGGGGCUAAACUGCC [C10A U34G G40A]	0.03
GGCAGAGCUAAACACAGCGUGGCAAAGUGGCUGGGGCUAGACUCCC [C10A U34G G44C]	0.01
GGCAGAGCUAAACACAGCGUGGCAAAGUGGCUGUGGCAAGACUGGC [C10A U38A C45G]	0.06
GGCAGAGCUAAACACAGCGUGGCAAAGUGGCUGUGGCAAGACUGCA [C10A U38A C46A]	0.08
GGCAGAGCUAAACACAGCGUGGCAAAGUGGCUGUGGCAAAACUGCC [C10A U38A G40A]	0.02
GGCAGAGCUAAACACAGCGUGGCAAAGUGGCUGUGGCAAUACUGCC [C10A U38A G40U]	0.01
GGCAGAGCUGCACCCAACGUGGCAAAGUGGCUGUGGCUAGACUGCC [C10G A11C A14C G17A]	0.07
GGCAGAGCUGCACACAGCGUGGCAAAGUGGCUGUGGGUAGACUGCC [C10G A11C C37G]	0.01
GGCAGAGCUGCACACAGCGUGGCAAAGUGGCUGUGGCUAGACUGCA [C10G A11C C46A]	0.01
GGCAGAGCUGCACACAGCAUGGCAACGCGGCUGUGGCUAGACUGCC [C10G A11C G19A A26C U28C]	0
GGCAGAGCUGCACACAGCGUGGCAAAGUGUCUGUGGCUAUACUGCC [C10G A11C G30U G40U]	0.01
GGCAGAGCUGCACACAGCGUGGCAAAGUGGCUGUCGCUAGACUGCC [C10G A11C G35C]	0.03
GGCAGAGCUGCACACAGCGUGGCAAAGUGGCUGUCGCUCGACUGCC [C10G A11C G35C A39C]	0.01
GGCAGAGCUGGCUACAGCGUGGCAAAGUGGCUGUGGCUAGACUGCC [C10G A11G A12C C13U]	0.04
GGCAGAGCUGGCCACAGCGUGACUAAGUGGCUGUGGCUAGACUGCC [C10G A11G A12C G22A A24U]	0.02

Variant	self-cleavage
GGCAGAGCUGGACCCAGCGUGGCAAAGUGGCUGUGGCUAGACUGCC [C10G A11G A14C]	0
GGCAGAGCUGGACACAGCUUGGCAAAGUGACUGUGGCUAGACUGCC [C10G A11G G19U G30A]	0.01
GGCAGAGCUGGACACAGCGUGGCAAAGUGUCUGUGGCAAGAAUGCC [C10G A11G G30U U38A C42A]	0.01
GGCAGAGCUGGACACAGCGUGGCAAAGUGGCUGUGACUAGACUGCC [C10G A11G G36A]	0.01
GGCAGAGCUGUACACGGCUUGGCAAAGUGGCUGUGGCUCCACUGCC [C10G A11U A16G G19U A39C G40C]	0.01
GGCAGAGCUGUACACAGCGUGGCACAGUGGCUGUGGCUAGACUGCC [C10G A11U A25C]	0.01
GGCAGAGCUGUACACAGCGUGGCAAAGUGGCUGUGGCAAGACUGCC [C10G A11U U38A]	0.01
GGCAGAGCUGACCACAGGGUGGCAAAGUGGCUAUGGCUAGACUGCC [C10G A12C C18G G33A]	0.01
GGCAGAGCUGACCACACCGCGGCAAAGUGGCUGUGGCUAGACUGCA [C10G A12C G17C U20C C46A]	0
GGCAGAGCUGAGCAAAGCGUGGCACACUGGCUAUGGCUAGACUGCA [C10G A12G C15A A25C G27C G33A C46A]	0
GGCAGAGCUGAGCAAAGCGUGGCAAAGUGGCUGUGCCUAGACUGCC [C10G A12G C15A G36C]	0.02
GGCAGAGCUGAGCACACCGCGCCAAUAUGGCUGUGGCUAGACUGCC [C10G A12G G17C U20C G22C A26U G27A]	0.02
GGCAGAGCUGAGCACAGCGUGGCAAAGUGGCUGUGGCUACUCUGCC [C10G A12G G40C A41U]	0.01
GGCAGAGCUGAUCACCGCGUGGCACAGUGGCUGUGGCUAGAGUGCC [C10G A12U A16C A25C C42G]	0.01
GGCAGAGCUGAUCACCGGGUGGCAAAGUGCCUGUGGCUAGACUGGA [C10G A12U A16C C18G G30C C45G C46A]	0
GGCAGAGCUGAUCACAGCGUGGCAAGGUGCCUGUGGUUAGACUCCU [C10G A12U A26G G30C C37U G44C C46U]	0
GGCAGAGCUGAUCAUAGCGUGGCAAAGUGGCAGUGGCUAGACUGCC [C10G A12U C15U U32A]	0.01
GGCAGAGCUGAUCACAGCGUGGCAAAGUGGCUGUGGGUAGACUGCC [C10G A12U C37G]	0.02
